Results taken from PMC5612953, “Stable MOB1 interaction with Hippo/MST is not essential for development and tissue growth control” (Nature Communications, 2017).
These are yes or no findings as the source states them, for the method shown. In cells and extracts the contact can be indirect. Some binding calls cover weakened binding; strength is not graded here. Sequences can lack the tags named with a protein.

By UniProt entry, the sequences of proteins in these tests, tags left out.
UniProt Q9Y2H1: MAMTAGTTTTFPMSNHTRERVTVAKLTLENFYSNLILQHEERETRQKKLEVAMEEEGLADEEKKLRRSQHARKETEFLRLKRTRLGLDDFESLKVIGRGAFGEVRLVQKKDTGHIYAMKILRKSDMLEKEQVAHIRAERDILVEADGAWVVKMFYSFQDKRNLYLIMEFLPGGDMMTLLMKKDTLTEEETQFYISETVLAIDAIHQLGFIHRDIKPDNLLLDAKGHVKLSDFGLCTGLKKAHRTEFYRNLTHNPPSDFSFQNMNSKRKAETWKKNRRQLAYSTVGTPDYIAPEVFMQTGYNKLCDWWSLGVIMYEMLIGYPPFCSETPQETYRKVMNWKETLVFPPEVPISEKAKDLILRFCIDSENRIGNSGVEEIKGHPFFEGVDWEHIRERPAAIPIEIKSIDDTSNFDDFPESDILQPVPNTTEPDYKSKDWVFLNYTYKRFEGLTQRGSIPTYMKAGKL
UniProt Q15208: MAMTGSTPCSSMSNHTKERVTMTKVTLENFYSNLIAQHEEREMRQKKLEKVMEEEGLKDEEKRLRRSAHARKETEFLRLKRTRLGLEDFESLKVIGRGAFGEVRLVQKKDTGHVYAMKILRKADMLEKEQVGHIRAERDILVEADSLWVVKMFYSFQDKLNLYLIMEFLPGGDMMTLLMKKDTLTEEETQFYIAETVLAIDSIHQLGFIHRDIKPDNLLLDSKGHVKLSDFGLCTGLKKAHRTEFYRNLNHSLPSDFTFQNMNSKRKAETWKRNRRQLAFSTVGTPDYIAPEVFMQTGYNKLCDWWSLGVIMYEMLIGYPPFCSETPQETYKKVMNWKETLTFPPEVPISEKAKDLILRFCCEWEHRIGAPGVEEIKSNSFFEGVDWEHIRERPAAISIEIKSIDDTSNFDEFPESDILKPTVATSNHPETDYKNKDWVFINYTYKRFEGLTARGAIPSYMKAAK
UniProt Q9NBK5: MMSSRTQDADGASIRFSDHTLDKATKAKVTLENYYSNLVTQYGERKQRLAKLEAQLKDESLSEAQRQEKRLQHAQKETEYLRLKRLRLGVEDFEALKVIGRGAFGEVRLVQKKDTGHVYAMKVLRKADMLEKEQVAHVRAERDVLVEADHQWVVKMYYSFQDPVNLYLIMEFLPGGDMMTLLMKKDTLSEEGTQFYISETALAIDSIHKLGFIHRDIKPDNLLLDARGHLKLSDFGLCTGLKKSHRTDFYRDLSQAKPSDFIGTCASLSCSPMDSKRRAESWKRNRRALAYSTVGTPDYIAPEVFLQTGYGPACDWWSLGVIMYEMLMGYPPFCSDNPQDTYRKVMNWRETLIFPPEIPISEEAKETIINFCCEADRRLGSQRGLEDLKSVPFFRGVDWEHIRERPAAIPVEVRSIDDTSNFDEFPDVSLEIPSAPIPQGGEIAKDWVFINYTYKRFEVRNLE

What was measured:
[1] = target: HA-tagged wild-type human NDR2 (human) (UniProt Q9Y2H1); assay: co-IP; HEK293 cells co-expressing myc-MOB1A variants and HA-tagged kinases; IP with anti-HA (12CA5), blot anti-myc; low-stringency buffer (30 mM HEPES pH 7.4, 20 mM KCl, 1% TX-100)
[2] = target: HA-tagged wild-type human NDR1 (human) (UniProt Q15208); assay: as above
[3] = target: fly HA-tagged Tricornered (Trc) (Drosophila) (UniProt Q9NBK5); assay: co-IP; Drosophila S2R+ cells co-expressing myc-MOB1A variants and HA-tagged Wts, Trc or Hpo; IP with anti-HA, blot anti-myc; low-stringency buffer
[4] = target: T1, full-length HA-Hpo(wt) (Drosophila) (UniProt Q8T0S6); assay: as above
T1 sequence: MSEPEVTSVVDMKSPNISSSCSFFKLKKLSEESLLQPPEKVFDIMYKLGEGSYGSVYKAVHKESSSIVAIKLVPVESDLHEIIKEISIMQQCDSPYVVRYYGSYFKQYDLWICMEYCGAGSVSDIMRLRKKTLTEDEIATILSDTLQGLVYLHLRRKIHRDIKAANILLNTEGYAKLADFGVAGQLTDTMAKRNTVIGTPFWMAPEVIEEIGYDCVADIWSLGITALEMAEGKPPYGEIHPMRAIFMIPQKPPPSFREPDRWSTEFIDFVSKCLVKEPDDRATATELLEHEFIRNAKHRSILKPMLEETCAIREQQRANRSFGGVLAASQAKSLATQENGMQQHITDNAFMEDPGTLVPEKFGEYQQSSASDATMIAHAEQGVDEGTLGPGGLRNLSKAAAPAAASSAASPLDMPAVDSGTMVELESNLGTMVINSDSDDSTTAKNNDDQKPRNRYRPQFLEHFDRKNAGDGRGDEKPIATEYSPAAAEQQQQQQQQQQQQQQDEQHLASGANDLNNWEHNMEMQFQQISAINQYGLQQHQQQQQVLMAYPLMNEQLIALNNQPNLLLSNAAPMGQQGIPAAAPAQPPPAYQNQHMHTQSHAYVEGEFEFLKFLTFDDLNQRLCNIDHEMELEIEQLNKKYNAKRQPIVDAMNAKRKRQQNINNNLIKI

binding [2] | binding [3] | Binder | other results
binds | – | myc-tagged full-length human MOB1A(K153E/R154E) (HEK293) (protein, UniProt Q9H8S9 1-216) MSFLFSSRSSKTFKPKKNIPEGSHQYELLKHAEATLGSGNLRQAVMLPEGEDLNEWIAVNTVDFFNQINMLYGTITEFCTEASCPVMSAGPRYEYHWADGTNIKKPIKCSAPKYIDYLMTWVQDQLDDETLFPSKIGVPFPKNFMSVAKTILEELFRVYAHIYHQHFDSVMQLQEEAHLNTSFKHFIFFVQEFNLIDRRELAPLQELIEKLGSKDR | –
– | binds | myc-tagged full-length human MOB1A(K153E/R154E) (Drosophila S2R+ cells) (protein, UniProt Q9H8S9 1-216) MSFLFSSRSSKTFKPKKNIPEGSHQYELLKHAEATLGSGNLRQAVMLPEGEDLNEWIAVNTVDFFNQINMLYGTITEFCTEASCPVMSAGPRYEYHWADGTNIKKPIKCSAPKYIDYLMTWVQDQLDDETLFPSKIGVPFPKNFMSVAKTILEELFRVYAHIYHQHFDSVMQLQEEAHLNTSFKHFIFFVQEFNLIDRRELAPLQELIEKLGSKDR | –

The remaining lines, values behind:

Binder | binding [2] | binding [3] | other results
myc-tagged full-length human MOB1A(E51K) (HEK293) (protein, UniProt Q9H8S9 1-216) MSFLFSSRSSKTFKPKKNIPEGSHQYELLKHAEATLGSGNLRQAVMLPEGKDLNEWIAVNTVDFFNQINMLYGTITEFCTEASCPVMSAGPRYEYHWADGTNIKKPIKCSAPKYIDYLMTWVQDQLDDETLFPSKIGVPFPKNFMSVAKTILKRLFRVYAHIYHQHFDSVMQLQEEAHLNTSFKHFIFFVQEFNLIDRRELAPLQELIEKLGSKDR | – | – | binding [1]: binds weakly
myc-tagged full-length human MOB1A(K153A/R154A) (HEK293) (protein, UniProt Q9H8S9 1-216) MSFLFSSRSSKTFKPKKNIPEGSHQYELLKHAEATLGSGNLRQAVMLPEGEDLNEWIAVNTVDFFNQINMLYGTITEFCTEASCPVMSAGPRYEYHWADGTNIKKPIKCSAPKYIDYLMTWVQDQLDDETLFPSKIGVPFPKNFMSVAKTILAALFRVYAHIYHQHFDSVMQLQEEAHLNTSFKHFIFFVQEFNLIDRRELAPLQELIEKLGSKDR | binds | – | –
myc-tagged full-length human MOB1A(K153A/R154A) (Drosophila S2R+ cells) (protein, UniProt Q9H8S9 1-216) MSFLFSSRSSKTFKPKKNIPEGSHQYELLKHAEATLGSGNLRQAVMLPEGEDLNEWIAVNTVDFFNQINMLYGTITEFCTEASCPVMSAGPRYEYHWADGTNIKKPIKCSAPKYIDYLMTWVQDQLDDETLFPSKIGVPFPKNFMSVAKTILAALFRVYAHIYHQHFDSVMQLQEEAHLNTSFKHFIFFVQEFNLIDRRELAPLQELIEKLGSKDR | – | binds | –
myc-tagged full-length human MOB1A(D63V/K104E/K105E) (Drosophila S2R+ cells) (protein, UniProt Q9H8S9 1-216) MSFLFSSRSSKTFKPKKNIPEGSHQYELLKHAEATLGSGNLRQAVMLPEGEDLNEWIAVNTVVFFNQINMLYGTITEFCTEASCPVMSAGPRYEYHWADGTNIEEPIKCSAPKYIDYLMTWVQDQLDDETLFPSKIGVPFPKNFMSVAKTILKRLFRVYAHIYHQHFDSVMQLQEEAHLNTSFKHFIFFVQEFNLIDRRELAPLQELIEKLGSKDR | – | binds | binding [4]: no binding
